These results are taken from publication PMC3001443.

Chains of the proteins cited; added tags and fusions are not shown. Lines headed by an entry give the natural chain unless they say otherwise; changes in a name come on top.
UniProt O45495: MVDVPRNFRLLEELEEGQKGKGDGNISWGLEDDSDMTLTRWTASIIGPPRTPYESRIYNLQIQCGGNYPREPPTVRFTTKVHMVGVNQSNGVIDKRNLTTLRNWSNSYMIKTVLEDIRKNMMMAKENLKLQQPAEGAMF

Results are given in words; binding and its absence hold for the method and conditions named. For part of these data: Binding seen in cells or lysates may run through a third protein. Some entries that bind do so weakly or less than the wild type. Sequences can lack the tags named with a protein.

The target of assay [1] is T1, UBC-13 (yeast two-hybrid fusion) (C. elegans) (UniProt Q95XX0).
T1 sequence: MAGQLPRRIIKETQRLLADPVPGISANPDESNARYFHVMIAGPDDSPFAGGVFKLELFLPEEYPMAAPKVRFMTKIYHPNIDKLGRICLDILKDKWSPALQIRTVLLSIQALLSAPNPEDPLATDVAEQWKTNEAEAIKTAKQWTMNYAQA
As to the kind of experiment: two-hybrid; pEG202 bait vector and pJG4-5 prey vector with reporter plasmid pSH18-34 in yeast strain EGY48; growth of serial dilutions on -Leu -His -Trp dropout plates; both orientations tested.

The next assay has as its target T2, GST::UBC-13 (C. elegans) (UniProt Q95XX0).
T2 sequence: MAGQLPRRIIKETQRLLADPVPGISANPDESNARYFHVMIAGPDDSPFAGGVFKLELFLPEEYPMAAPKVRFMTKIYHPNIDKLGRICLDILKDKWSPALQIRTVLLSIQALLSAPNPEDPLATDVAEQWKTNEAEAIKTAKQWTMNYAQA
Put plainly: pull-down; GST::UBC-13 (12 micrograms) bound to glutathione agarose beads; 400 microliters of solubilized COS7 lysate in TEEN (20 mM Tris, 1 mM EDTA, 1 mM EGTA, 100 mM NaCl) with 1% Triton X-100; 45-60 minutes at 4°C; washed in TEEN plus 0.2% Triton X-100; Western blot with anti-GFP antibodies; only the target purified. Background: In western blotting, separated proteins are transferred to a membrane and probed.

Assay [2] concerns the target UEV-1 with the F8A mutation (yeast two-hybrid fusion) (C. elegans) (UniProt O45495). As to the kind of experiment: two-hybrid; pEG202 bait vector and pJG4-5 prey vector with reporter plasmid pSH18-34 in yeast strain EGY48; growth of serial dilutions on -Leu -His -Trp dropout plates; both orientations tested.
In assay [3] the target is UEV-1 (yeast two-hybrid fusion) (C. elegans) (UniProt O45495). Described as above.

With “UEV-1 (yeast two-hybrid fusion) (from UniProt O45495 1-139)”, the binding entry in assay [1] is recorded as “binds”. On to “GFP::UEV-1(F8A) (from UniProt O45495 1-139)”, for which, in the assay with GST::UBC-13 (C. elegans), the binding result is “no binding”.

As for “UEV-1 with the F8A mutation (yeast two-hybrid fusion) (from UniProt O45495 1-139)”, the binding entry in assay [1] was “no binding”.

Consider GFP::UEV-1 (from UniProt O45495 1-139), for which, in the assay with GST::UBC-13 (C. elegans), the binding entry is listed as “binds”.

B1: UBC-13 (yeast two-hybrid fusion) (enzyme, UniProt Q95XX0 1-151)
chain: MAGQLPRRIIKETQRLLADPVPGISANPDESNARYFHVMIAGPDDSPFAGGVFKLELFLPEEYPMAAPKVRFMTKIYHPNIDKLGRICLDILKDKWSPALQIRTVLLSIQALLSAPNPEDPLATDVAEQWKTNEAEAIKTAKQWTMNYAQA
For B1, the binding result is reported as “no binding” in assay [2] and “binds” in assay [3].
